# Experimental data taken from PubChem BioAssay (NCATS).
# Values joined by “and” are separate entries in the source; they are usually repeats but may differ in a detail not shown here. Equal values may be shown once. The inconclusive results got no clear call from the source; some entries with a clear call stand among them for comparison. Potencies beside an inconclusive call are fits to weak or partial responses and may not hold up. The source holds several records for some structures; these can differ, active in one and inactive in another. Active and inactive are the calls of the source. Calls follow the shape of the dose curve; as a rule, active = well fitted curve in the direction sought with a large enough effect; inconclusive = small, poorly fitted or top-dose-only effect, or another doubt; inactive = no such curve, though single readings can be large; an effect the other way counts as inactive or inconclusive.
# Experiment: Primary qHTS for inhibitors of nuclear receptor binding SET domain protein 2 (NSD2) in an isogenic RCH-ACV NSD2 p.E1099K mutant (9B) (AID 1645876)
# Conditions: RCH-ACV NSD2 E1099K (9B) viability, CellTiter-Glo, 72 h; series mostly up to 44.9 µM; activity change, negative = viability loss: at the top concentration
# % is scaled to controls: 0 for no effect and ±100 for the full control effect; potency is read from the fitted curve at half-maximal effect; tags tell the direction and shape of the fitted curve.
# Also: nearly all actives have a fitted effect of over 70% in size.
Compound,"activity change, negative = viability loss",Potency
O=C(O)c1ccccc1NCCc1ccccc1,inactive: -9.94%,–
Cc1cc2c(s1)Nc1ccccc1N=C2N1CCN(C)CC1,–,"inconclusive: 26.6 µM [inhibitor, single point] and inconclusive: 29.5 µM [inhibitor, single point]"
CN(C)c1cc(NC(=O)CNC(C)(C)C)c(O)c2c1C[C@@H]1C[C@H]3[C@H](N(C)C)C(=O)C(C(N)=O)=C(O)[C@@]3(O)C(=O)C1=C2O,–,"inconclusive: 29.9 µM [inhibitor, single point]"
Cc1ccc(-n2nc(C(C)(C)C)cc2NC(=O)Nc2ccc(OCCN3CCOCC3)c3ccccc23)cc1,–,"inconclusive: 29.1 µM [inhibitor, single point]"
Cc1nc(-c2ccc(OCC(C)C)c(C#N)c2)sc1C(=O)O,–,inactive
Cc1c(C(=O)O)c(O)cc2c1C(=O)c1c(O)c([C@@H]3O[C@H](CO)[C@@H](O)[C@H](O)[C@H]3O)c(O)c(O)c1C2=O,–,"inconclusive: 26.6 µM [inhibitor, single point]"
COc1cc(C(=S)N2CCOCC2)ccc1O,–,"inconclusive: 26.6 µM [inhibitor, single point]"
NC(=O)N/N=C/c1ccc([N+](=O)[O-])o1,–,"inconclusive: 38.6 µM [inhibitor, single point] and inconclusive: 21.1 µM [inhibitor, single point]"

# Experiment: Primary qHTS for inhibitors of nuclear receptor binding SET domain protein 2 (NSD2) in an RCH-ACV wild type WT cells (2C) (AID 1645877)
# Conditions: RCH-ACV (leukaemia line) NSD2 WT (2C) viability, CellTiter-Glo, 72 h; series mostly up to 44.9 µM; activity change, negative = cell killing: at the top concentration
row,Compound,Potency
1,S=c1[nH]c2ccccc2s1,"inconclusive: 38.6 µM [inhibitor, partial curve]"
2,CCCC(=O)OC[C@@H](OC(=O)CCC)[C@@H](OC(=O)CCC)[C@H](Cn1c2nc(=O)[nH]c(=O)c-2nc2cc(C)c(C)cc21)OC(=O)CCC,"inconclusive: 21.1 µM [inhibitor, partial curve]"
3,Cc1ccnc2c1NC(=O)c1cccnc1N2C1CC1,"inconclusive: 33.5 µM [inhibitor, single point]"
4,CCC[C@@H]1C[C@@H](C(=O)N[C@@H]([C@H]2O[C@H](SC)[C@H](O)[C@@H](O)[C@H]2O)[C@@H](C)O)N(C)C1,"inconclusive: 29.9 µM [inhibitor, single point]"
5,CC(=O)Oc1cc2c(s1)CCN(C(C(=O)C1CC1)c1ccccc1F)C2 (stereo unspecified),"inconclusive: 33.5 µM [inhibitor, single point]"
6,C#CC1(O)CC[C@H]2[C@@H]3CCC4=CCCC[C@@H]4[C@H]3CC[C@@]21C (stereo partly specified),"inconclusive: 23.7 µM [inhibitor, single point]"
7,O=C1c2ccccc2C(=O)c2c1ccc(O)c2O,"inconclusive: 29.9 µM [inhibitor, single point]"
8,O[C@@H](COc1cccc2ncccc12)CN1CCN(C2c3ccccc3[C@@H]3[C@H](c4ccccc42)C3(F)F)CC1 (stereo partly specified),"inconclusive: 18.3 µM [inhibitor, single point]"
9,CN(C(=O)C(Cl)Cl)c1ccc(OC(=O)c2ccco2)cc1,"inconclusive: 29.9 µM [inhibitor, single point]"
10,Cc1ccc(C)c(OCCCC(C)(C)C(=O)O)c1,"inconclusive: 33.5 µM [inhibitor, single point] and inactive"
11,CC1=C(CC(=O)O)c2cc(F)ccc2/C1=C\c1ccc(S(C)=O)cc1 (stereo unspecified),"inconclusive: 29.9 µM [inhibitor, single point]"
12,CC(=O)SCC(CC(=O)c1ccc(C)cc1)C(=O)O (stereo unspecified),"inconclusive: 29.9 µM [inhibitor, single point]"
13,CC(=C(CCOC(=O)C(C)C)SSC(CCOC(=O)C(C)C)=C(C)N(C=O)Cc1cnc(C)nc1N)N(C=O)Cc1cnc(C)nc1N,"inconclusive: 21.1 µM [inhibitor, single point]"
14,Cc1cc(O)c2ccccc2c1O,"inconclusive: 21.1 µM [inhibitor, single point]"
15,NCCO,"inconclusive: 68.6 µM [inhibitor, single point]"
16,CCOc1ccc2nc(S(N)(=O)=O)sc2c1,"inconclusive: 33.5 µM [inhibitor, single point]"
17,Cc1cc(C)c(/C=C2\C(=O)Nc3ccccc32)[nH]1,"inconclusive: 23.7 µM [inhibitor, single point] and inconclusive: 25.9 µM [inhibitor, single point]"
18,O=Nc1c(-c2c(O)[nH]c3cc(Br)ccc23)[nH]c2ccccc12,active: 1.32 µM
